{"source": "PubChem BioAssay AID686978", "about": "(National Center for Advancing Translational Sciences (NCATS), 2013)", "note": "Hit rate of the full screen: of about 420,000 compounds, about 64,000 (15%) were called active. Inconclusive means that the source gave no clear call. Such entries were picked first, then a sample of the others. The call rests on the fitted dose curve; in most records, active means well fitted inhibition curve with a large enough effect; inconclusive means small, poorly fitted or top-dose-only effect; inactive means flat fitted curve, though single readings scatter. No potency is given beside an inconclusive call; the fits are too rough. On the % scale 0 is the no-effect control and ±100 the full control effect; potency means the concentration at half of the fitted maximal effect; tags describe the fitted curve by direction and shape.", "data": [{"experiment": "qHTS for Inhibitors of human tyrosyl-DNA phosphodiesterase 1 (TDP1): qHTS in cells in absence of CPT; further: nearly all actives have a fitted effect of over 55% in size", "conditions": "DT40 Tdp1-/- hTDP1 cells, no CPT, ATP luminescence, 48 h; activity change, negative = growth inhibition: at 46.2 µM (top of the series) unless noted", "how_it_was_run": "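Readout: luminescence from CellTiter-Glo after 30 min in the dark at RT. Cells: DT40 Tdp1-/- with stable hTDP1, 400/well. Exposure: compounds alone, ≥48 hr, 37 °C.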", "values": [{"smiles": "O=C(CN(c1ccccc1)S(=O)(=O)c1ccccc1[N+](=O)[O-])Nc1ccccc1C(=O)N1CCOCC1", "Potency": "inconclusive [inhibitor, single point]"}, {"smiles": "Cc1ccc(Cn2c(CNS(=O)(=O)c3ccc(C(C)(C)C)cc3)nc3cccnc32)cc1", "Potency": "inconclusive [inhibitor, single point]"}, {"smiles": "Cc1nc2sccn2c(=O)c1S(=O)(=O)NCc1ccc(F)cc1", "Potency": "inactive"}, {"smiles": "Cc1ccc(NC(=O)c2cc(S(=O)(=O)N3CCc4ccccc43)cn2C)cc1C", "Potency": "inconclusive [inhibitor, single point]"}, {"smiles": "O=C(c1cccc(Cl)c1)N1CCCC(Cn2cc(C(=O)N3CCCC3)nn2)C1", "note": "(stereo not drawn)", "Potency": "inactive"}, {"smiles": "CC(C)CC(NC(=O)c1ccc(Cl)cc1)C(=O)OCc1cc([N+](=O)[O-])cc2c1OCOC2", "note": "(stereo not drawn)", "Potency": "inactive"}, {"smiles": "CCOC(=O)C1CC(=NO)c2ccc(OC)c(OC)c2C1", "note": "(stereo not drawn)", "activity change, negative = growth inhibition": "inconclusive: -31.7% [inhibitor]"}, {"smiles": "CCOc1ccccc1N1CCN(C(=O)c2ccc(NS(=O)(=O)c3ccc4[nH]c(=O)[nH]c4c3)cc2)CC1", "Potency": "inactive"}, {"smiles": "CCCN(CCC)S(=O)(=O)c1ccc(C(=O)Nc2nc(-c3ccccc3)c(C(=O)OCC)s2)cc1", "Potency": "inconclusive [inhibitor, single point]"}, {"smiles": "Cc1cccc(C(=O)NCC(c2ccco2)N2CCc3ccccc32)c1", "note": "(stereo not drawn)", "Potency": "active: 14.6 µM"}, {"smiles": "Nc1c(-c2ccccc2)cnn1-c1cccc(C(F)(F)F)c1", "Potency": "inconclusive [inhibitor, single point]"}, {"smiles": "COc1ccccc1CNc1nc2ccccc2c2nc(-c3cccnc3)nn12", "Potency": "inconclusive [inhibitor, full curve, poor fit]"}, {"smiles": "COc1ccc(Cn2c(=O)[nH]c3cc(C(=O)Nc4ccccc4C)ccc32)cc1", "Potency": "inactive"}, {"smiles": "Cc1c(NC(=O)c2cc(-c3ccc(O)cc3)on2)c(=O)n(-c2ccccc2)n1C", "Potency": "inconclusive [inhibitor, single point]"}, {"smiles": "COc1ccc(/C=C2\\N=C(c3ccccc3)N(c3ccc(C(=O)O)cc3)C2=O)cc1OC", "Potency": "inactive"}, {"smiles": "CCOC(=O)C1CCCCN1C(=O)/C(=C/c1ccc(OC)cc1)c1ccc(OC)c(OC)c1", "note": "(stereo not drawn)", "Potency": "inconclusive [inhibitor, single point]"}, {"smiles": "COc1ccc(NC(=O)C(=O)NCCc2ccc(OC)c(OC)c2)c(OC)c1", "Potency": "inconclusive [inhibitor, single point]"}, {"smiles": "CN(C(=O)c1sc2nc(N3CCCC3)c3c(c2c1N)CC(C)(C)OC3)c1ccccc1", "Potency": "inconclusive [inhibitor, single point]"}, {"smiles": "NNC(=O)CN1C(c2cccc(Cl)c2)=Nc2ccc(Br)cc2C1c1ccccc1", "note": "(stereo not drawn)", "Potency": "inconclusive [inhibitor, single point]"}, {"smiles": "Cc1ccc(SCC(=O)N2CCN(c3ccccn3)CC2)cc1", "Potency": "inactive"}, {"smiles": "C[C@H]1NS(=O)(=O)c2cc(Cl)ccc2O[C@@H]1c1ccccc1", "Potency": "inconclusive [inhibitor, partial curve]"}, {"smiles": "COc1ccc(OC)c(NC(=O)c2ccccc2SC)c1", "Potency": "inactive"}, {"smiles": "Cc1c(C2(O)CCCCC2)[nH]c2ccc(C(F)(F)F)cc12", "Potency": "inconclusive [inhibitor, single point]"}, {"smiles": "N#CCOc1ccccc1/C=C/c1nc2ccccc2c(=O)[nH]1", "Potency": "inactive"}, {"smiles": "COc1cc(CNCc2cccc(OC)c2OC)cc(OC)c1", "Potency": "inconclusive [inhibitor, single point]"}, {"smiles": "CCN1C(=O)c2ccc(C(=O)Nc3cccc(C(=O)O)c3)cc2C1=O", "Potency": "inactive"}, {"smiles": "COc1ccc(C2=CC(=O)C[C@H](CN3C(=O)c4ccccc4C3=O)N(C(=O)OC(C)(C)C)O2)cc1", "Potency": "inconclusive [inhibitor, single point]"}, {"smiles": "CCOC(=O)C(Cc1ccc(NC(=O)/C(=C/c2ccc(OC(C)=O)cc2)NC(C)=O)cc1)N1C(=O)c2ccccc2C1=O", "note": "(stereo not drawn)", "Potency": "inconclusive [inhibitor, partial curve]"}, {"smiles": "COC(=O)c1ccc2c(c1O)C(=O)c1ccccc1C2=O", "Potency": "active: 20.6 µM"}, {"smiles": "N#CC1=C(N)OC2=C(CCc3ccccc32)C1c1ccccc1Cl", "note": "(stereo not drawn)", "Potency": "active: 4.61 µM"}, {"smiles": "COCCCNC(=O)c1cnn(-c2ccccc2Cl)c1C1CCN(C(=O)OC(C)(C)C)CC1", "Potency": "inactive"}, {"smiles": "COc1ccc2[nH]c(=O)c(CN(C)C(=O)COc3ccccc3)cc2c1", "Potency": "inconclusive [inhibitor, single point]"}, {"smiles": "Cc1cc(OCC(=O)N(C)Cc2ccccc2)ccc1Cl", "Potency": "inconclusive [inhibitor, single point]"}, {"smiles": "Nc1ncnc2c1ncn2[C@@H]1O[C@H](C(=O)N(CCC2=CCCCC2)CC2CC2)[C@@H](O)[C@H]1O", "Potency": "active: 16.4 µM"}, {"smiles": "COc1ccc(CCNC(=O)c2cccc(-n3c(C)nc4cccnc43)c2)cc1OC", "Potency": "inconclusive [inhibitor, single point]"}, {"smiles": "COC(=O)c1ccc2[nH]c(C3(O)CCCCC3)c(C)c2c1", "Potency": "inconclusive [inhibitor, single point]"}, {"smiles": "COc1ccc(NC(=O)/C(C#N)=C/c2ccc(Sc3nncn3C)c([N+](=O)[O-])c2)cc1", "Potency": "active: 25.9 µM"}, {"smiles": "Cc1ccc(-c2nc3ccc(Cl)cn3c2Cc2cccc(F)c2)cc1", "Potency": "inconclusive [inhibitor, single point]"}, {"smiles": "COc1ccc(CNC(=O)C2CCN(C(=O)c3ccc(-n4ccc5ccccc54)s3)CC2)cc1", "Potency": "active: 13 µM"}, {"smiles": "OC[C@H]1OC([S-])[C@H](O)[C@@H](O)[C@@H]1O.[Au+]", "note": "(stereo partly drawn)", "Potency": "inactive"}, {"smiles": "COc1ccc(-c2[nH]ncc2N=Nc2ccccc2)cc1", "Potency": "inconclusive [inhibitor, single point]"}, {"smiles": "COCCN1C(=O)N(c2ccc(Cl)cc2)C(=O)C1CC(=O)Nc1cc(OC)cc(OC)c1", "note": "(stereo not drawn)", "Potency": "inconclusive [inhibitor, single point]"}, {"smiles": "Cc1[nH]c2ccccc2c(=O)c1SC(F)(F)C(F)C(F)(F)F", "note": "(stereo not drawn)", "Potency": "inconclusive [inhibitor, partial curve]"}, {"smiles": "O=c1oc(-c2ccc(Cl)cc2[N+](=O)[O-])nc2ccccc12", "Potency": "inconclusive [inhibitor, single point]"}, {"smiles": "O=C(c1ccccc1)c1ccc2nc(Nc3ccccc3Cl)c3nncn3c2c1", "Potency": "inconclusive [inhibitor, full curve]"}, {"smiles": "CN(CC(=O)Nc1ccccc1C(F)(F)F)C(=O)CN1C(=O)C2CCCCC2C1=O", "note": "(stereo not drawn)", "Potency": "inactive"}, {"smiles": "CCCCN(C(=O)CC1CCCCC1)c1c(N)n(CCCC)c(=O)[nH]c1=O", "Potency": "inconclusive [inhibitor, single point]"}, {"smiles": "CCn1c(=O)c2c(nc3n2CCCN3CCc2ccc(OC)c(OC)c2)n(C)c1=O", "Potency": "inconclusive [inhibitor, single point]"}, {"smiles": "CCOC(=O)c1c(C)oc2nc(C)nc(NCc3cccc(OC)c3)c12", "Potency": "inconclusive [inhibitor, single point]"}, {"smiles": "CC(=O)/C=C1\\SC(CC(=O)O)C(=O)N1c1ccccc1", "note": "(stereo not drawn)", "Potency": "inactive"}, {"smiles": "CCOCN(C(=O)CSc1nc2ccccc2[nH]1)c1c(C)cccc1CC", "Potency": "active: 23.1 µM"}, {"smiles": "N#CC1=C(S)N(c2ccccc2)C(c2ccc(-c3ccc(Cl)c(Cl)c3)o2)NC1=O", "note": "(stereo not drawn)", "Potency": "inconclusive [inhibitor, partial curve]"}, {"smiles": "O=C(Nc1cccc([N+](=O)[O-])c1)Nc1ccc2c(c1)CCC2", "Potency": "inconclusive [inhibitor, single point]"}, {"smiles": "COc1ccc(Cl)cc1C(=O)NC(=S)Nc1cc(-c2nc3ccccc3[nH]2)ccc1C", "Potency": "active: 14.6 µM"}, {"smiles": "Fc1cccc(/C=N/n2c(C3CCCCC3)n[nH]c2=S)c1", "Potency": "inactive"}, {"smiles": "CCCCCCCCN1C(=O)[C@H](CC(=O)N2CCCCC2)C[C@@]2(C(=O)OC)CCCCC=C12", "Potency": "active: 25.9 µM"}, {"smiles": "CCc1nnc(NC(=O)CCC(=O)N2CCC(Cc3ccccc3)CC2)s1", "Potency": "inconclusive [inhibitor, partial curve]"}, {"smiles": "Cc1ccccc1-c1nc(CS(=O)(=O)CC(=O)NCCCN2CCCC2=O)c(C)o1", "Potency": "inactive"}, {"smiles": "CCCCc1nc2sc3c(SCCN(C)C)ncnc3c2c2c1CCC2", "Potency": "inconclusive [inhibitor, single point]"}, {"smiles": "CCN1C(=O)NC(c2cc(Br)ccc2OC)C(C(=O)OC)=C1C", "note": "(stereo not drawn)", "Potency": "inconclusive [inhibitor, partial curve, poor fit]"}, {"smiles": "COc1ccccc1CNC(=O)CCCn1c(=O)c2ccccc2n(Cc2ccccc2F)c1=O", "Potency": "active: 7.31 µM"}, {"smiles": "CCc1nnc(N2C(=O)c3ccccc3C2(O)c2ccccc2)s1", "note": "(stereo not drawn)", "Potency": "inconclusive [inhibitor, single point]"}, {"smiles": "CC(=O)Nc1ccc(-c2csc(NCc3ccccc3)n2)cc1", "Potency": "inconclusive [inhibitor, single point]"}, {"smiles": "COc1cc(C(=O)NC(C)C2CC3CCC2C3)cc(OC)c1OC", "note": "(stereo not drawn)", "Potency": "inconclusive [inhibitor, single point]"}, {"smiles": "O=C1Nc2ccccc2O/C1=C\\c1c(F)cccc1Cl", "Potency": "inconclusive [inhibitor, partial curve]"}, {"smiles": "COc1ccc(C(C)=O)cc1COC(=O)c1ccc(C)c(S(=O)(=O)N2CCOCC2)c1", "activity change, negative = growth inhibition": "inconclusive: -31.1% [inhibitor]"}, {"smiles": "CCOC(=O)N1CCN(C(=O)COc2cccc3c2CCN(Cc2ccccc2C)C3=O)CC1", "Potency": "inconclusive [inhibitor, single point]"}, {"smiles": "CN(C(=O)c1ccco1)c1nc(-c2ccccc2)cs1", "Potency": "inconclusive [inhibitor, single point]"}]}]}
